Whole data set: some 33,000 sequences, median “E-score (-0.5 to 0.5)” near -0.056, cut for the highest 2% near 0.38. The list shows a part of the results.
Target: Stb4 (UniProt P50104)
Experiment: PBM E-score (8-mer binding enrichment) (E-score (-0.5 to 0.5)); higher = stronger / more preferred TF binding; most listed sequences are background and not binding sites
Details: protein concentration: 200 nM; construct: GST-DNA-binding domain
Method in brief: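 Detection of bound protein used fluorescent anti-GST, with scans normalised by masliner. The proteins were GST-tagged yeast transcription factors applied at about 100-200 nM to universal all-10-mer Agilent arrays made double-stranded by primer extension. Each ungapped eight-base word, pooled with its reverse complement, was scored with an E-score from the Universal PBM Analysis Suite.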

Sequence	PBM E-score
ATATAGCC	0.183
CTTGGCAC	-0.236
GCCAGAAC	-0.0133
ACGTTTGA	0.0329
CTTGGCCA	-0.188
GACTGGCA	-0.187
CAATTGGG	-0.223
AGCAATCG	-0.087
CTGGGCGC	-0.274
AGGATTGA	-0.128
AGAACCAA	-0.118
ACCCAATC	0.0159
ATGGCCGG	0.189
CCCGCTCA	0.0831
AGAAGGAG	-0.159
AACGCCAA	0.0304
GAGTGATA	-0.0622
CATTCCAG	-0.359
GGAACCCA	0.15
AGTGTGGC	-0.0938
ATGTGGCC	-0.095
CTCTCTGA	-0.279
CTAACCGA	0.401
CATTGTTA	-0.256
CGCATGGA	-0.105

Sequence	PBM E-score
CATTATGG	-0.0751
CCTTCGCG	0.019
ATCTTGTC	-0.145
ATTGCGCA	-0.0152
ATTGGTTC	0.0474
ATACGGTC	0.129
GGACTCGA	0.113
TACCACGA	-0.229
CGAAGCTC	0.183
CAAAACCG	0.0173
GATCGAGA	-0.0708
AAGCGAGG	-0.0198
AGACAGAG	-0.271
ATGCAGCC	-0.0412
CGGAATGA	0.342
CGACACAC	0.0505
AGGGAAAT	-0.211
CGGCAACC	0.33
CAGTCTAC	-0.176
ACTACTTC	0.0682
TGCTCTAA	-0.331
GATATATA	0.0492
CGCTATGC	-0.102
AGGCGCAG	-0.33
ACACCACC	0.0149

Sequence	PBM E-score
GGCTTCTA	-0.0329
ATTCTGTG	0.0711
GCCATTCC	0.127
TAACATAA	0.119
GACCGCTA	0.0181
GAATGCTA	0.0561
CCTTCATC	-0.0404
GGTATAAA	0.177
AAAAAATT	0.0787
AGTCCCAG	-0.193
GGGCCGCA	0.134
CCGTTAAC	0.198
CTCCTTGA	-0.218
AGTTGGAC	-0.0261
ACGAGTAT	-0.123
CATGTTGG	-0.198
GGCAATCA	0.109
ACCAAGCT	-0.232
CACCAGGG	-0.367
AAATGAAG	-0.112
ACAAACCA	-0.228
AACGCGCA	-0.174
ACTGCTGA	-0.238
GCCATCTA	-0.157
CCTGTAGA	-0.0477

Sequence	PBM E-score
AGAATAAG	-0.0478
AGATCAAA	-0.0539
ATACCCTG	-0.0928
CTGAGTAA	-0.226
ACTCCACG	-0.0643
ATAATAAC	0.0397
CTAAGCCA	-0.333
TGCCCAAA	-0.0899
AACCTAAC	0.0725
AAGGTGGG	-0.162
GGCATTTA	-0.00929
CCAGATAA	-0.112
ACCCTGCG	-0.0706
AAGTGCCT	-0.228
ATGTGTAC	-0.132
ATGAGCTG	-0.138
AGCACTAC	-0.306
CAAGCAGA	-0.0191
ATAGCGCC	0.0725
ATTAGCTA	-0.154
CAACCGGC	0.218
ATTCGCCC	0.0226
AAACGGAA	0.367
GCGGAGGA	-0.0295
CCTATGGA	-0.103

Sequence	PBM E-score
ACGCGTGG	-0.00971
CAACTAAC	0.163
CCAGACGC	-0.248
CCTGGTGC	-0.133
AGGTCAGA	-0.078
TTAGTCAA	-0.165
ATGCTCGG	0.404
CTCCCGGC	0.321
AAGTGGAT	0.00152
AAACGTCT	-0.115
CGTTGTCA	-0.153
AGGCTTTG	-0.113
CCGTGACA	0.178
CGGGTGGC	0.258
GATCTGTA	0.0472
AGGTCATG	-0.121
GTATCTGA	-0.0112
CGTTGAAG	-0.0863
AGTCAGCA	-0.248
ACAGGGGA	-0.122
TACGTGGA	-0.171
CCTTGTCC	-0.029
CTCTGCTC	0.036
AGCTTAAT	0.0871
CCTCTAGA	-0.179

Sequence	PBM E-score
ATACTTGC	-0.211
GCGAGTAC	-0.0817
CCGAGGCC	0.436
ATACTTCC	0.197
CAACTGTC	-0.175
GAATACTC	0.109
ATACGAGA	-0.282
ACGTGGGG	-0.142
GACTGGGC	-0.165
GTCGATGA	-0.0648
CGATCTGC	0.134
GCGAGGTA	-0.124
ATTAGTAG	-0.176
GACTATCC	0.173
CAGAGACA	-0.348
AACAACTT	-0.165
GCCACGGA	0.24
CTCCCATC	-0.0432
ACACCTCT	-0.165
GAATTAGA	0.00742
ACACTTTG	-0.0712
ACAACTTC	0.0333
CGGCCTCA	0.107
AGCTCGTC	-0.0888
TTATGAAA	-0.0132

Sequence	PBM E-score
GCTGCAAA	-0.0614
ATTAGACC	-0.0535
CCGCAAAA	0.157
CGGGCCCA	0.11
AGGACCCC	-0.0529
CCGATTCA	0.194
CAACGACC	0.0652
GTGGGAAA	0.0405
CTCACCCA	0.00764
CCGGGTAC	0.375
TGCTACCA	-0.216
CTACACTC	-0.0924
TAGCACGA	-0.0924
ACCTCTTG	0.0452
AACCCGAA	0.387
CACTCCGG	0.267
CAATCCTG	-0.213
ATGGCTGA	-0.133
CGCCGGAC	0.146
AATCGAAG	-0.00187
CCGATGCC	0.275
ATTTGCGG	0.194
TAGCGAGA	-0.15
AGCCTAGC	0.014
AACCCTCT	-0.311

Sequence	PBM E-score
CCGCGTCA	0.0442
AGACCCGA	0.419
GAGGTCCC	0.112
ATATTACC	0.00212
AATTATCG	0.0106
TGCGCACA	-0.0208
TACTAGTA	-0.0719
AATATAGC	-0.0498
AGAAGAAA	0.00687
GCTAGCAA	-0.0763
CGCGGGGC	0.173
GAGTTCGA	-0.0351
AATCGGGG	0.229
GCTCTCGA	-0.314
ACATAGGA	-0.114
ACTAGAGC	-0.272
CAGCCGCC	0.234
AACGGCGT	-0.0427
CGACTTAG	0.0271
AGTACGAG	0.0759
GCTAACTA	0.00043
GCCCTAAA	-0.273
ACTCTTCG	0.0611
GCCCCTTA	-0.0795
ACTAACAT	0.0255

Sequence	PBM E-score
ACCAAACG	-0.136
ACTCCAGT	-0.173
GAGTTTAC	0.22
CTACTGTC	-0.141
CGCGACTC	-0.0117
TATAGAGA	-0.308
CGTGACAC	0.0877
AGCAGATG	-0.381
CCATTTCA	-0.422
GCAACGAC	0.0391
CTCATGTA	0.00334
AATCGAAA	-0.0544
AAAGCGGG	-0.0396
CAAGAGTA	-0.0811
CCGACTCA	0.245
AGTTTGTA	-0.0234
CGATCGGA	0.322
GAGACCAC	-0.15
ATACCAGC	-0.121
AGGTTGAT	-0.173
CGTATTCA	-0.0809
ATATCGAC	-0.0133
CGATTACG	-0.0587
ATTTGAAG	-0.006
GACCTACC	-0.0914

Sequence	PBM E-score
CGTAGAAA	0.0457
GAAACTTA	0.00294
CAGTCGCC	-0.0528
TGAACCCA	-0.137
AGTTTTTA	-0.166
AGATTCAT	-0.129
AGGAAGCA	-0.109
CAAGTGGA	-0.165
CCTGAGGA	-0.142
AGCCGGAT	0.396
CGTACTAC	0.0682
CACAACAA	-0.101
AATCTGGT	0.106
AAACTTTA	-0.0852
AAGTATTA	-0.128
GACCAAAC	0.0124
GCTCAGCA	-0.172
TAGTCCGA	0.296
ACACCCGC	0.164
ACCCCTAC	-0.188
AATAGGTG	-0.0948
AGCCCTAT	-0.192
CTTACACC	-0.17
AAAAACAT	-0.154
CTTGGACA	-0.0873

Sequence	PBM E-score
GAGGATCA	-0.15
CGAGCAGC	0.15
AATTTAGT	-0.0763
AGATGGAA	0.106
TGCGGCCA	-0.173
GTGGTTGA	-0.148
CCAAATGG	-0.0447
CGGTTCGC	0.0552
AAGGCGTA	-0.25
ATAGGCTG	-0.11
AGTCAGGG	-0.377
ACTATGTC	-0.108
AGCCTTGC	-0.0915
ACGTAGGG	-0.275
GCTTCGAC	-0.103
CGGTCGTC	0.0906
ACCATGGT	-0.278
CCCCTTTA	-0.245
ACTCTGAG	-0.05
GAGAACCA	-0.127
ATACTCTC	-0.136
CCCCCACC	-0.238
CACGGGAA	0.276
CCCAGACG	-0.17
CCTAGGTA	-0.00105

Sequence	PBM E-score
AGGCTCAG	-0.347
GGCGGAAA	0.277
ATACCCCC	0.0757
CGGGAAAC	0.357
ATCGTCCG	0.233
AAATTCAT	-0.0912
CACCCGTA	0.204
ACTTCATG	-0.153
AACAGTTA	0.0464
CCGCGAAC	0.145
AGAGGAGC	-0.196
ACGCGCCG	0.217
AATCCATG	-0.139
CTCCCATA	-0.109
ATCTCTTG	-0.0969
GAGGGAAA	-0.248
GCTACGCC	-0.239
AGGGCACT	-0.187
CCGTAACC	0.306
ATTGCAGA	-0.00181
ACAGCCAC	0.0308
CACCCTGG	-0.123
CCTCATGC	-0.199
GGACTGTA	-0.0624
ACATCGCT	-0.103

Sequence	PBM E-score
CGGCAAAC	0.354
ACTCGGGG	0.286
AGGTTCCA	0.0324
AGGCAGAT	-0.0986
CCTCCAGA	-0.0604
AATGCGGT	0.0478
GGACCACA	0.0635
CGTTTTAG	-0.0603
ACGAAGTA	-0.0487
GCTCAGGA	-0.243
AAAGTGTT	0.146
TAGAACGA	-0.139
ACTCACCC	0.106
ACTCCGCC	0.206
ACGACAGG	-0.18
AATATGTA	-0.0602
AGGTTCGC	0.0812
CAAGTGAA	-0.0797
TGAACGAA	-0.263
ATACACCC	0.236
CATCCCTC	-0.0859
ATCATTGG	-0.267
GGAGTCCA	-0.00968
TAATTAAA	-0.0457
TAAATGCA	-0.016

Sequence	PBM E-score
AGTCAGAG	-0.252
TAATCGCA	-0.138
AGCGTTGC	0.0755
AAGAGAAG	-0.227
CAACGGCG	-0.0275
AGTGTTGC	-0.144
ACTGTGCA	-0.0936
CCTTTTTA	-0.0616
CGAGGTTA	0.14
TGAGGCCA	0.00562
CGTAAATC	0.102
AGCCTACG	-0.146
CATTGGAC	-0.00489
AAGCTTAC	-0.299
TCGGTGAA	0.259
TAACATGA	-0.098
CGCCCTGC	0.0196
GAGGGAGA	-0.08
AAAACCTC	0.263

Source: the supplement of paper PMC3334620
